Measured values taken from the supplement of paper PMC3334620.
In all, about 33,000 sequences were measured (“E-score (-0.5 to 0.5)”: median about -0.035, highest 2% from about 0.35 on). This is one part of the list.

These sequences were tested against T1, Pdr3 (UniProt P33200) (assay: PBM E-score (8-mer binding enrichment) (E-score (-0.5 to 0.5)); higher = stronger / more preferred TF binding; most listed sequences are background and not binding sites). Details: protein concentration: 200 nM; construct: GST-full length.
T1 sequence: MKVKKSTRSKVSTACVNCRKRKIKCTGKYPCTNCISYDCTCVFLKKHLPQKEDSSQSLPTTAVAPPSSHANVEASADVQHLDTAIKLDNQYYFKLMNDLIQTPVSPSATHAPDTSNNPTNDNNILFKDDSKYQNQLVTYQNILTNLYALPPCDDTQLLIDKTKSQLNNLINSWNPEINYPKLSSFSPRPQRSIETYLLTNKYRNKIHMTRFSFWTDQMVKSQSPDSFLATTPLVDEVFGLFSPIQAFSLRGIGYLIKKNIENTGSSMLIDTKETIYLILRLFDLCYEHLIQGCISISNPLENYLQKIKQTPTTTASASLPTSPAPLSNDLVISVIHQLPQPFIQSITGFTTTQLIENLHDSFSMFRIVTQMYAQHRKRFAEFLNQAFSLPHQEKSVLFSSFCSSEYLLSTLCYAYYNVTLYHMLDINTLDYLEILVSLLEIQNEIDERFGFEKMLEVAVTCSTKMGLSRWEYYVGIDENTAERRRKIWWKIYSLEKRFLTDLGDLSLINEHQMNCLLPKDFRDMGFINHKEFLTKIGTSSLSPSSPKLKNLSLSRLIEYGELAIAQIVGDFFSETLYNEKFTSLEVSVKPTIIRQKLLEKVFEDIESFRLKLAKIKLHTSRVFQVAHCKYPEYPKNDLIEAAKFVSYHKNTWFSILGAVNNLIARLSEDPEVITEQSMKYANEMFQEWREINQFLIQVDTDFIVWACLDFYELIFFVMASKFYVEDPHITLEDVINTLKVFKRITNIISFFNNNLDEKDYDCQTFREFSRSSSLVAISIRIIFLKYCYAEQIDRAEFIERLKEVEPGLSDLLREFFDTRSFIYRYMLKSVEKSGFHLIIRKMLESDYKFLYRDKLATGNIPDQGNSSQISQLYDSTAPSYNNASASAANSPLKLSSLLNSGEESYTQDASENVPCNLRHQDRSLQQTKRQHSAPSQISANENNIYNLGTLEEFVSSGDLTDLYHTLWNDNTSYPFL
Experimental: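 Universal 'all 10-mer' protein binding microarrays (Agilent AMADID 015681) probed with GST-tagged S. cerevisiae TFs (full-length or DBD) made by in vitro transcription/translation (PURExpress), about 100-200 nM. Bound TF was detected with fluorescent anti-GST. Each ungapped 8-mer (which stands for itself and its reverse complement) is scored by the PBM enrichment score (E-score), a modified Wilcoxon-Mann-Whitney statistic from -0.5 to +0.5, computed with the Universal PBM Analysis Suite. Scale: above 0.35 generally sequence-specific binding.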

In order of falling “PBM E-score” value:
1. ATTCCGGG  0.458
2. CCGGAAGG  0.421
3. CGGAGCCA  0.331
4. GCAATCCC  0.314
5. CTCCGTGA  0.301
6. GAACCCGA  0.251
7. CCGATTGC  0.244
8. AAATTATA  0.238
9. ATTCCTGC  0.221
10. ATCCCGCA  0.21
11. CCCTCGGC  0.173
12. CCGCAAAC  0.159
13. GAGCGGGA  0.158
14. CGCGAACC  0.145
15. CAATATCG  0.126
16. ACGGCAAA  0.121
17. CTCACTCC  0.12
18. GCACGCGA  0.117
19. GAATAAGA  0.116
20. AATTAAGC  0.106
21. AAAAGCGA  0.106
22. CATATTTC  0.106
23. AACTATGC  0.102
24. CCATTACA  0.102
25. TGGGAACA  0.0839
26. AGCGATGG  0.0716
27. GTACTAAC  0.0645
28. CGCGTATC  0.0575
29. GAATGAAC  0.0564
30. CTGAGTTC  0.0504
31. AGACGAAG  0.0481
32. CAGAACGC  0.0429
33. GAGTCTCC  0.0351
34. GACCACAA  0.0326
35. CGACAAAG  0.0309
36. ATAAACTG  0.0284
37. CTGGAATC  0.02
38. CTGGCCGC  0.019
39. AAGCAGCG  0.017
40. AACCGTCG  0.0101
41. AAAAGAAA  0.00526
42. CGCAGAGC  0.00344
43. GCATCTTA  -0.0006
44. CCGAAAAC  -0.00202
45. CATTTCGA  -0.00856
46. ACCCTTTA  -0.0141
47. ACCTACAG  -0.0159
48. TAGAATAA  -0.0191
49. CTTTAACC  -0.0243
50. CATCTGGC  -0.0257
51. GGGGTGAC  -0.0259
52. AGGTAACA  -0.0376
53. ATTATAAG  -0.0394
54. GAGACTAC  -0.0463
55. CCTCGGTC  -0.0478
56. CAACTTCA  -0.0591
57. AGGTAATC  -0.0608
58. AAAGTCCT  -0.0618
59. AGCCCACG  -0.0622
60. CACAGGCC  -0.073
61. CTTGGTGA  -0.0771
62. CCTATGCG  -0.0785
63. GCACTACC  -0.0798
64. CTGTTCTC  -0.0802
65. AAGTTTTC  -0.0868
66. AATGGTAG  -0.0896
67. CATAGCCC  -0.0942
68. CCAATTAC  -0.099
69. CCTGAGTA  -0.1
70. GTCGCTGA  -0.103
71. GTCCTTGA  -0.105
72. CGACGATA  -0.105
73. GCAAACAC  -0.108
74. GTCCTATA  -0.111
75. AAAGGGCA  -0.113
76. CATGAAGA  -0.116
77. AACGTGGA  -0.116
78. CTTAGAAC  -0.119
79. AAGCCAAA  -0.123
80. CATCGTGC  -0.125
81. TACCCAAA  -0.132
82. ACATACAG  -0.134
83. ATGCCCCC  -0.135
84. CTCAGTAA  -0.137
85. CTAAAACA  -0.144
86. CAAATCTA  -0.149
87. GGGCACAC  -0.153
88. AAATGCTG  -0.155
89. ACGTTGAG  -0.175
90. CTAACTGC  -0.181
91. ATAAGACA  -0.183
92. ACAACAGC  -0.185
93. CTAAGTCC  -0.193
94. ACGCAAAG  -0.209
95. CTGCTTAC  -0.21
96. AGTTCTGA  -0.225
97. GAGGGCAC  -0.232
98. AAATGCAA  -0.233
99. CATTAGAG  -0.234
100. AGACTCAA  -0.24
101. ACGACTTG  -0.242
102. AGCCCCCC  -0.244
103. GCTTAGGA  -0.264
104. AAGGGAGT  -0.269
105. CATCAAGG  -0.27
106. AAGACTGA  -0.282
107. ACAGTCGA  -0.293
108. TCATTGAA  -0.301
109. AACCCCCC  -0.307
110. GTGTCTAA  -0.331
